Among the data in the RNAGym collection of RNA variant scans (doi:10.7554/elife.90254) are self-cleavage values, retold here.

Read counts are not given, so values of variants with three or more changes are uncertain.

To fix the notation:
B1: LINE1-mini (parent)
chain: GGCAGAGCUCAACACAGCGUGGCAAAGUGGCUGUGGCUAGACUGCC

This data set covers variants of B1. Description: self-cleavage, relative activity (ratio to wild type); higher = more cleavage; in vitro, sequencing; the parent is a self-cleaving ribozyme.
On to GGCAGAGCUCAACACGGCGUGGCAAAGUGGCUUUGGCUAGACUGGC [A16G G33U C45G], for which the self-cleavage turned out to be 0.08.
Turning to GGCAGAGCUCAACACGGCGUGGCAUAGUGGCUGAGGCUGGACUGCC [A16G A25U U34A A39G], the self-cleavage worked out at 0.
As to GGCAGAGCUCAACACCGCGUGGCAAAGUGGCAGUGACUACAUUGCC [A16C U32A G36A G40C C42U], the self-cleavage came to 0.24.
Turning to GGCAGAGCUCAACACCGCAUGUCAAAGUGGCUGUGGGUAGACUGCC [A16C G19A G22U C37G], the self-cleavage was determined as 0.03.
Take GGCAGAGCUCAACACCGCGUGGCAAAGCGGCUGUGGCUAGACCACC [A16C U28C U43C G44A]: the self-cleavage turned out to be 0.03.
For GGCAGAGCUCAACACGGCUUGGCAAACUGGCUGUGGCUAGACUGCC [A16G G19U G27C], the self-cleavage was determined as 0.13.
GGCAGAGCUCAACACCGCGUGGCAAAGUGGCUCUGUCUAGACUGCC [A16C G33C G36U]: the self-cleavage was 0.03.
As for GGCAGAGCUCAACACGGCGCGGCAAGGUGACUGUGGCUAGACUGCC [A16G U20C A26G G30A], the self-cleavage worked out at 0.15.
Consider GGCAGAGCUCAACACCGCGUCUCAAAGUGGCGGUGGCUAGUCUGCC [A16C G21C G22U U32G A41U], for which the self-cleavage was found to be 0.15.
In the case of GGCAGAGCUCAACACCGCAUGGCAAAGUGGCUGAGGCUAGACUGCC [A16C G19A U34A], the self-cleavage came to 0.03.
As to GGCAGAGCUCAACACGGCGUGGCAAAGUGGGUGUGGCUAGACUGCA [A16G C31G C46A], the self-cleavage worked out at 0.02.
Regarding GGCAGAGCUCAACACGGCGUGGCAAAGUGGCUGCGGCUAGGCUGCC [A16G U34C A41G], the self-cleavage came out at 0.01.
The figure for GGCAGAGCUCAACACGGUGUGGCACAGUGGUUGUGGCUAAACUGCC [A16G C18U A25C C31U G40A] is 0.01; for GGCAGAGCUCAACACCGCGUGGCAAAGUAACUGUGGUUAAACUGCC [A16C G29A G30A C37U G40A] it is 0.02; for GGCAGAGCUCAACACGGCGUGCCGAAGCGGCUGUAGCUAGACUCCC [A16G G22C A24G U28C G35A G44C] it is 0.03.
As for GGCAGAGCUCAACACCGCGCGGCAAAGUGACUGUGGCUAGACUGCC [A16C U20C G30A], the self-cleavage stood at 0.13.
On to GGCAGAGCUCAACACGGCGUGGCAAAGUGGUUGUGGCUAGGCUGCC [A16G C31U A41G], for which the self-cleavage turned out to be 0.03.
In the case of GGCAGAGCUCAACACGGCGUGGCAUAGAGGCUGUGGCUAGACAGCC [A16G A25U U28A U43A], the self-cleavage was determined as 0.02.
As for GGCAGAGCUCAACACGGCGUGGCAUAGUGGCUGUGGCAAGACUGCC [A16G A25U U38A], the self-cleavage came to 0.12.
In the case of GGCAGAGCUCAACACCGCGUGGCAAAGUGGCUGUGGAUUGACUGCU [A16C C37A A39U C46U], the self-cleavage turned out to be 0.02.
GGCAGAGCUCAACACGGCGUGGGAAAGUGGCUGUGGCUAUACUGCC [A16G C23G G40U]: the self-cleavage was found to be 0.
As for GGCAGAGCUCAACACCGCGGGGCAAAGUGGCCGUGGCUAGCCUGCC [A16C U20G U32C A41C], the self-cleavage worked out at 0.02.
For the variant GGCAGAGCUCAACACCACGUGGCAAAGUGGCUGUGGUGAGACUGCC [A16C G17A C37U U38G], the self-cleavage turned out to be 0.04.
Take GGCAGAGCUCAACACCGCGUGUCAUAGUGGCUGUGGCUAGACUGCC [A16C G22U A25U]: the self-cleavage is 0.1.
As to GGCAGAGCUCAACACGGCGUGGCAAAGUCGCUGUCGCUAGACAGCC [A16G G29C G35C U43A], the self-cleavage was found to be 0.01.
As for GGCAGAGCUCAACACCGCGUGGCAAAGUGGCUCUGGCUAUACUGCC [A16C G33C G40U], the self-cleavage came out at 0.01.
In the case of GGCAGAGCUCAACACGGCGUGGCAAAGUGGUUGUCGCUAGACUGCC [A16G C31U G35C], the self-cleavage was 0.01.
For the variant GGCAGAGCUCAACACCGCGUGAUAAAGUGGCUGUAGCUAGACUGCC [A16C G22A C23U G35A], the self-cleavage worked out at 0.03.
GGCAGAGCUCAACACGGCGUGGCAAAGUGGCUGUGGCUAGGCUACC [A16G A41G G44A]: the self-cleavage is 0.01.
As for GGCAGAGCUCAACACGGCGUUGCAAAGUUGGUGUGGCUAGACUGCC [A16G G21U G29U C31G], the self-cleavage amounted to 0.05.
As for GGCAGAGCUCAACACGGCGUGGCAAAGGGGCUGUCGCUAGACUGCC [A16G U28G G35C], the self-cleavage is 0.02.
GGCAGAGCUCAACACGGCGUGGCAAAGUGGCUGUGGCUAUAUUGCC [A16G G40U C42U]: the self-cleavage came to 0.13.
Turning to GGCAGAGCUCAACACGGCGUGGCAAACUUGCUGUGGCUAGACUGCC [A16G G27C G29U], the self-cleavage came to 0.59.
Turning to GGCAGAGCUCAACACCGCGGGGCAAAGUGGCUGUGGUUAGAAUGCC [A16C U20G C37U C42A], the self-cleavage worked out at 0.13.
Take GGCAGAGCUCAACACCGCGUGACACAGUGGCUGUGGUUAGACUGCC [A16C G22A A25C C37U]: the self-cleavage is 0.06.
On to GGCAGAGCUCAACACCGCGUCGCAAAGUGGCUGUGGCUCGACUGCC [A16C G21C A39C], for which the self-cleavage came to 0.06.
Take GGCAGAGCUCAACACCUUGUGGCAAAGUGGCUGUGGUUAGACUGCC [A16C G17U C18U C37U]: the self-cleavage turned out to be 0.02.
Consider GGCAGAGCUCAACACGGCGUGGCAAAGUGGCUGUGUCUAGACUGCA [A16G G36U C46A], for which the self-cleavage amounted to 0.04.
Regarding GGCAGAGCUCAACACCGCGCGUCAAAGUGUCUGUGGCUACACUGCC [A16C U20C G22U G30U G40C], the self-cleavage is 0.01.
The figure for GGCAGAGCUCAACACGGCGUGGCCAAGUUGCUGUGGAUAGACUGCC [A16G A24C G29U C37A] is 0.04; for GGCAGAGCUCAACACCGCGAGGCAAAGUGGCUGUGUCUAGACCGCC [A16C U20A G36U U43C] it is 0; for GGCAGAGCUCAACACCGCGUGGCAAAGUGGCUGAGGCUAGACUGAC [A16C U34A C45A] it is 0.
With GGCAGAGCUCAACACCGCGUGGCAAAGUUGCUGUGGCUAAACUGCC [A16C G29U G40A], the self-cleavage came to 0.17.
Consider GGCAGAGCUCAACACGGCGUGUCAAAGUGGCUGUGGCUAGACUGUC [A16G G22U C45U], for which the self-cleavage was 0.06.
As to GGCAGAGCUCAACACCGCGUGGCAAAGUGGCUGUGGGCAGACUAAC [A16C C37G U38C G44A C45A], the self-cleavage amounted to 0.02.
The figure for GGCAGAGCUCAACACGGCGUGGCAAAGGGGCUGUGACUUGACAACC [A16G U28G G36A A39U U43A G44A] is 0.27; for GGCAGAGCUCAACACGGCGUGGCAAAGUUGCUGUGGCUAGACUGUC [A16G G29U C45U] it is 0.16; for GGCAGAGCUCAACACGGCGUUGCAAAGUGGUAGUGGCUAGGCUGCC [A16G G21U C31U U32A A41G] it is 0.
Consider GGCAGAGCUCAACACCGCAUGGCAAGGUGGAUGUGGGUAGACUGCC [A16C G19A A26G C31A C37G], for which the self-cleavage was 0.01.
Turning to GGCAGAGCUCAACACGGAGUGGCAAACUGGCUGUGCCUAGACUGCC [A16G C18A G27C G36C], the self-cleavage worked out at 0.02.
Consider GGCAGAGCUCAACACCGCGUUGCAACGUGGCUGUGGCUAGACUGCC [A16C G21U A26C], for which the self-cleavage is 0.02.
As for GGCAGAGCUCAACACGGCGUGGCAAAGUGGCUGUGGCUACACUGGA [A16G G40C C45G C46A], the self-cleavage was 0.04.
The figure for GGCAGAGCUCAACACCGCGUUUCAAAUUGGCUGUGGCUAGCCUUCC [A16C G21U G22U G27U A41C G44U] is 0.02; for GGCAGAGCUCAACACCGCGUGGCAAAGUGGCUGUUGCUAGACUGUC [A16C G35U C45U] it is 0.
On to GGCAGAGCUCAACACGGCGUGGCAAAGUGUCUGUGUCUAGACUGCC [A16G G30U G36U], for which the self-cleavage was 0.04.
With GGCAGAGCUCAACACCGCGUGGCAAAGGGGCUGUGGGUAGACUGCC [A16C U28G C37G], the self-cleavage was found to be 0.
